# Results from the supplement of paper PMC4967469.
# The IC50 comes from the fitted curve, where viability falls to half of the control; a limit (>, <) means that the fit lies beyond the doses tested. AUC, from the same fit, is the share of area under the viability curve across the 256-fold dose range; it is 1 without any effect and falls as sensitivity rises. For some assays here: Where the top dose is marked as inferred, it was calculated from the reported fits. For some assays here: An entry number marks a drug with two screens in the source, which often give different values.
# Key:
# Test in all cases: Viability of human cancer cell lines after 72 h of drug (GDSC screen)
# [1] = compound: COc1cc(O)c2c(c1)/C=C/C[C@H](O)[C@H](O)C(=O)/C=C\C[C@H](C)OC2=O [(5Z)-7-Oxozeaenol]; settings: top dose 10 µM; top dose inferred
# Protocol: (§1)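 Human cancer cell lines in 384-well plates, medium with 10% serum, drug for 72 h over a 256-fold dose range (nine 2-fold or five 4-fold steps up to the top dose). Adherent lines were fixed and stained with the nucleic acid dye Syto60, suspension lines read with resazurin; signal relative to control wells, capped at 0 and 100%. One two-parameter sigmoid per drug and line, fitted in a mixed model over all curves with the slope shared within a line.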
# [2] = compound: Nc1ccn([C@@H]2O[C@H](CO)[C@@H](O)[C@@H]2O)c(=O)n1 [Cytarabine]; settings: top dose 2 µM
# Protocol: as §1
# [3] = compound: C[C@]1(c2nc3c(C(N)=O)cccc3[nH]2)CCCN1 [ABT-888]; settings: top dose 5 µM; top dose inferred
# Protocol: as §1
# [4] = compound: COc1cc(N2CCC(O)CC2)ccc1Nc1cc(Nc2ccccc2S(=O)(=O)C(C)C)c2cc[nH]c2n1 [MPS-1-IN-1]; settings: top dose 20 µM; top dose inferred
# Protocol: as §1
# [5] = compound: O=c1cc(-c2cccc3c2Sc2ccccc2S3)oc(N2CCOCC2)c1 [KU-55933]; settings: top dose 10 µM
# Protocol: as §1
# [6] = compound: COc1nc(C)cnc1NS(=O)(=O)c1cccnc1-c1ccc(-c2nnco2)cc1 [Zibotentan]; settings: top dose 20 µM; top dose inferred
# Protocol: as §1
# [7] = compound: Cc1cnc(-c2cnc(NCCNc3ccc(C#N)cn3)nc2-c2ccc(Cl)cc2Cl)[nH]1 [CHIR-99021]
# Protocol: as §1
# [8] = compound: Cc1ccc(F)c(NC(=O)Nc2ccc(-c3cccc4[nH]nc(N)c34)cc2)c1 [ABT-869]; settings: top dose 1.024 µM; top dose inferred
# Protocol: as §1
# [9] = compound: C/C=C(/C)C(=O)O[C@H]1C(C)=C2[C@H]([C@@H]1OC(=O)CCCCCCC)[C@@](C)(OC(C)=O)C[C@H](OC(=O)CCC)[C@@]1(O)[C@H]2OC(=O)[C@@]1(C)O [Thapsigargin]; settings: top dose 0.512 µM; top dose inferred
# Protocol: as §1
# [10] = compound: CCn1c(-c2nonc2N)nc2cnc(Oc3cccc(NC(=O)c4ccc(OCCN5CCOCC5)cc4)c3)cc21 [GSK269962A]; settings: top dose 5 µM; screen: GDSC drug entry 1192; top dose inferred
# Protocol: as §1
# [11] = compound: C=CC(=O)Nc1cc(-n2c(=O)ccc3cnc4ccc(-c5cn[nH]c5)cc4c32)ccc1C [QL-X-138]; settings: top dose 10.24 µM; top dose inferred
# Protocol: as §1
# [12] = compound: COc1cc2ncnc(-n3nc(-c4ccccn4)nc3N)c2cc1OC [CP466722]; settings: top dose 16 µM; top dose inferred
# Protocol: as §1
# [13] = top dose 2.56 µM, screen: GDSC drug entry 154
# [14] = top dose 10 µM, screen: GDSC drug entry 1241, top dose inferred
Cell Line,AUC [1],IC50 [1],AUC [2],IC50 [2],AUC [3],IC50 [3],AUC [4],IC50 [4],AUC [5],IC50 [5],AUC [6],IC50 [6],"AUC [7, 13]","IC50 [7, 13]","AUC [7, 14]","IC50 [7, 14]",AUC [8],IC50 [8],AUC [9],IC50 [9],AUC [10],IC50 [10],AUC [11],IC50 [11],AUC [12],IC50 [12]
"SBC-5 (small cell lung carcinoma, adherent)",0.672,1.7 µM,0.971,> 2 µM,0.992,> 5 µM,0.979,> 20 µM,0.987,> 10 µM,0.993,> 20 µM,0.993,> 2.56 µM,0.982,> 10 µM,0.992,> 1.02 µM,0.185,0.00471 µM,0.906,4.58 µM,0.95,> 10.2 µM,0.955,> 16 µM
"SCC-9 (head and neck, adherent)",0.474,0.519 µM,0.824,1.65 µM,0.981,> 5 µM,0.836,18.9 µM,0.903,> 10 µM,0.974,> 20 µM,0.839,2.5 µM,0.979,> 10 µM,0.981,> 1.02 µM,0.768,0.245 µM,0.924,> 5 µM,0.563,0.996 µM,0.729,5.45 µM
"SCC-25 (head and neck, adherent)",0.679,2.12 µM,0.849,1.82 µM,0.983,> 5 µM,0.846,17.6 µM,0.98,> 10 µM,0.975,> 20 µM,0.973,> 2.56 µM,0.982,> 10 µM,0.981,> 1.02 µM,0.335,0.0104 µM,0.949,> 5 µM,0.688,2.32 µM,0.803,9.18 µM
"SJRH30 (rhabdomyosarcoma, adherent)",0.788,4.56 µM,0.375,0.0557 µM,0.986,> 5 µM,0.875,> 20 µM,0.975,> 10 µM,0.986,> 20 µM,0.985,> 2.56 µM,0.985,> 10 µM,0.98,> 1.02 µM,0.278,0.00731 µM,0.872,> 5 µM,0.505,0.66 µM,0.829,10.4 µM
"SK-MEL-3 (melanoma, adherent)",0.695,2.43 µM,0.906,> 2 µM,0.98,> 5 µM,0.798,11.3 µM,0.979,> 10 µM,0.982,> 20 µM,0.984,> 2.56 µM,0.982,> 10 µM,0.984,> 1.02 µM,0.294,0.0076 µM,0.983,> 5 µM,0.901,> 10.2 µM,0.985,> 16 µM
"SK-MEL-30 (melanoma, adherent)",0.352,0.238 µM,0.883,> 2 µM,0.985,> 5 µM,0.846,15.7 µM,0.949,> 10 µM,0.983,> 20 µM,0.985,> 2.56 µM,0.983,> 10 µM,0.983,> 1.02 µM,0.276,0.0071 µM,0.984,> 5 µM,0.703,2.47 µM,0.876,> 16 µM
"SKG-IIIa (cervix, adherent)",0.839,> 10 µM,0.717,0.643 µM,0.983,> 5 µM,0.983,> 20 µM,0.944,> 10 µM,0.983,> 20 µM,0.973,> 2.56 µM,0.974,> 10 µM,0.977,> 1.02 µM,0.824,0.454 µM,0.919,> 5 µM,0.98,> 10.2 µM,0.981,> 16 µM
"SKN (uterus, adherent)",0.587,1.14 µM,0.762,0.858 µM,0.945,> 5 µM,0.98,> 20 µM,0.862,> 10 µM,0.981,> 20 µM,0.931,> 2.56 µM,0.843,9.41 µM,0.973,> 1.02 µM,0.402,0.0163 µM,0.817,3.57 µM,0.789,5.57 µM,0.733,5.41 µM
"SKN-3 (head and neck, adherent)",0.581,1.08 µM,0.789,1.07 µM,0.953,> 5 µM,0.96,> 20 µM,0.911,> 10 µM,0.978,> 20 µM,0.982,> 2.56 µM,0.937,> 10 µM,0.981,> 1.02 µM,0.822,0.372 µM,0.933,> 5 µM,0.81,6.6 µM,0.889,> 16 µM
"SNG-M (endometrium, adherent)",0.663,1.75 µM,0.722,0.525 µM,0.918,> 5 µM,0.89,> 20 µM,0.976,> 10 µM,0.985,> 20 µM,0.934,> 2.56 µM,0.75,3.2 µM,0.986,> 1.02 µM,0.145,0.00261 µM,0.711,1.21 µM,0.558,0.92 µM,0.705,3.72 µM
